# Reference: the supplement of paper PMC8728848
# The list shows a part of the results.
# B1: Jacalin (Artocarpus integrifolia) (protein)
# chain: MAYSSLLSLSVLALLFSISSADTRKWFLANGINQNPIGIIEAAVGVSEDLLNLNGMEAKNDEQSGISQTVIVGPWGAKVSTSSNGKAFDDGAFTGIREINLSYNKETAIGDFQVVYDLNGSPYVGQNHKSFITGFTPVKISLDFPSEYIMEVSGYTGNVSGYVVVRSLTFKTNKKTYGPYGVTSGTPFNLPIENGLIVGFKGSIGYWLDYFSMYLSL
# Columns and labels:
# Test in all cases: glycan array binding signal (z-score within array); higher = stronger binding
# Details in all cases: glycan notation: IUPAC condensed, linker removed
# [1] = molecular target: Fuc(a1-2)Gal6S(b1-3)GlcNAc
# Summary of the method: (§1)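 Glycan array data were curated from 3228 arrays in the Consortium for Functional Glycomics database and kept only where the protein sequence was available. Glycan names were converted to IUPAC-condensed notation, and columns mapping to the same glycan were averaged. The binding signal is a within-array Z-score, averaged across arrays of the same protein sequence at different concentrations or buffers and across linkers. Negative Z-scores can be read as non-binding.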
# [2] = molecular target: Fuc(a1-2)Gal6S(b1-3)GlcNAc6S
# Summary of the method: as §1
# Fuc(a1-2)Gal6S(b1-4)Glc = molecular target: Fuc(a1-2)Gal6S(b1-4)Glc
# Summary of the method: as §1
# [3] = molecular target: Fuc(a1-2)Gal6S(b1-4)Glc6S
# Summary of the method: as §1
# Fuc(a1-2)GlcNAc = molecular target: Fuc(a1-2)GlcNAc
# Summary of the method: as §1
# Fuc(a1-2)[Gal(a1-3)]Gal = molecular target: Fuc(a1-2)[Gal(a1-3)]Gal
# Summary of the method: as §1
# [4] = molecular target: Fuc(a1-2)[Gal(a1-3)]Gal(b1-3)GalNAc
# Summary of the method: as §1
# [5] = molecular target: Fuc(a1-2)[Gal(a1-3)]Gal(b1-3)GalNAc(b1-3)Gal(a1-4)Gal(b1-4)Glc
# Summary of the method: as §1
# [6] = molecular target: Fuc(a1-2)[Gal(a1-3)]Gal(b1-3)GlcNAc
# Summary of the method: as §1
# [7] = molecular target: Fuc(a1-2)[Gal(a1-3)]Gal(b1-3)GlcNAc(b1-2)Man(a1-3)[Fuc(a1-2)[Gal(a1-3)]Gal(b1-3)GlcNAc(b1-2)Man(a1-6)]Man(b1-4)GlcNAc(b1-4)GlcNAc
# Summary of the method: as §1
# [8] = molecular target: Fuc(a1-2)[Gal(a1-3)]Gal(b1-3)GlcNAc(b1-2)Man(a1-3)[Fuc(a1-2)[Gal(a1-3)]Gal(b1-3)GlcNAc(b1-2)Man(a1-6)]Man(b1-4)GlcNAc(b1-4)[Fuc(a1-6)]GlcNAc
# Summary of the method: as §1
# [9] = molecular target: Fuc(a1-2)[Gal(a1-3)]Gal(b1-3)GlcNAc(b1-3)GalNAc
# Summary of the method: as §1
# [10] = molecular target: Fuc(a1-2)[Gal(a1-3)]Gal(b1-3)GlcNAc(b1-6)GalNAc
# Summary of the method: as §1
# [11] = molecular target: Fuc(a1-2)[Gal(a1-3)]Gal(b1-4)Glc
# Summary of the method: as §1
# [12] = molecular target: Fuc(a1-2)[Gal(a1-3)]Gal(b1-4)GlcNAc
# Summary of the method: as §1
# [13] = molecular target: Fuc(a1-2)[Gal(a1-3)]Gal(b1-4)GlcNAc(b1-2)Man
# Summary of the method: as §1
# [14] = molecular target: Fuc(a1-2)[Gal(a1-3)]Gal(b1-4)GlcNAc(b1-2)Man(a1-3)[Fuc(a1-2)[Gal(a1-3)]Gal(b1-4)GlcNAc(b1-2)Man(a1-6)]Man(b1-4)GlcNAc(b1-4)GlcNAc
# Summary of the method: as §1
# [15] = molecular target: Fuc(a1-2)[Gal(a1-3)]Gal(b1-4)GlcNAc(b1-2)Man(a1-3)[Fuc(a1-2)[Gal(a1-3)]Gal(b1-4)GlcNAc(b1-2)Man(a1-6)]Man(b1-4)GlcNAc(b1-4)[Fuc(a1-6)]GlcNAc
# Summary of the method: as §1
# [16] = molecular target: Fuc(a1-2)[Gal(a1-3)]Gal(b1-4)GlcNAc(b1-3)GalNAc
# Summary of the method: as §1
# [17] = molecular target: Fuc(a1-2)[Gal(a1-3)]Gal(b1-4)GlcNAc(b1-3)[Fuc(a1-2)[Gal(a1-3)]Gal(b1-4)GlcNAc(b1-6)]GalNAc
# Summary of the method: as §1
# [18] = molecular target: Fuc(a1-2)[Gal(a1-3)]Gal(b1-4)GlcNAc(b1-6)GalNAc
# Summary of the method: as §1
# [19] = molecular target: Fuc(a1-2)[Gal(a1-3)]Gal(b1-4)[Fuc(a1-3)]Glc
# Summary of the method: as §1
# [20] = molecular target: Fuc(a1-2)[Gal(a1-3)]Gal(b1-4)[Fuc(a1-3)]GlcNAc
# Summary of the method: as §1
# [21] = molecular target: Fuc(a1-2)[Gal(a1-3)]Gal(b1-4)[Fuc(a1-3)]GlcNAc(b1-3)GalNAc
# Summary of the method: as §1
# [22] = molecular target: Fuc(a1-2)[Gal(a1-4)]Gal(b1-4)GlcNAc
# Summary of the method: as §1
# [23] = molecular target: Fuc(a1-2)[GalNAc(a1-3)]Gal
# Summary of the method: as §1
# [24] = molecular target: Fuc(a1-2)[GalNAc(a1-3)]Gal(b1-3)GalNAc(a1-3)[Fuc(a1-2)]Gal(b1-4)GlcNAc
# Summary of the method: as §1
# [25] = molecular target: Fuc(a1-2)[GalNAc(a1-3)]Gal(b1-3)GalNAc(b1-3)Gal(a1-4)Gal(b1-4)Glc
# Summary of the method: as §1
# [26] = molecular target: Fuc(a1-2)[GalNAc(a1-3)]Gal(b1-3)GlcNAc
# Summary of the method: as §1
# [27] = molecular target: Fuc(a1-2)[GalNAc(a1-3)]Gal(b1-3)GlcNAc(b1-2)Man(a1-3)[Fuc(a1-2)[GalNAc(a1-3)]Gal(b1-3)GlcNAc(b1-2)Man(a1-6)]Man(b1-4)GlcNAc(b1-4)GlcNAc
# Summary of the method: as §1
# [28] = molecular target: Fuc(a1-2)[GalNAc(a1-3)]Gal(b1-3)GlcNAc(b1-2)Man(a1-3)[Fuc(a1-2)[GalNAc(a1-3)]Gal(b1-3)GlcNAc(b1-2)Man(a1-6)]Man(b1-4)GlcNAc(b1-4)[Fuc(a1-6)]GlcNAc
# Summary of the method: as §1
# [29] = molecular target: Fuc(a1-2)[GalNAc(a1-3)]Gal(b1-3)GlcNAc(b1-3)GalNAc
# Summary of the method: as §1
# [30] = molecular target: Fuc(a1-2)[GalNAc(a1-3)]Gal(b1-3)GlcNAc(b1-6)GalNAc
# Summary of the method: as §1
# [31] = molecular target: Fuc(a1-2)[GalNAc(a1-3)]Gal(b1-4)Glc
# Summary of the method: as §1
# [32] = molecular target: Fuc(a1-2)[GalNAc(a1-3)]Gal(b1-4)GlcNAc
# Summary of the method: as §1
# [33] = molecular target: Fuc(a1-2)[GalNAc(a1-3)]Gal(b1-4)GlcNAc(b1-2)Man
# Summary of the method: as §1
# [34] = molecular target: Fuc(a1-2)[GalNAc(a1-3)]Gal(b1-4)GlcNAc(b1-2)Man(a1-3)[Fuc(a1-2)[GalNAc(a1-3)]Gal(b1-4)GlcNAc(b1-2)Man(a1-6)]Man(b1-4)GlcNAc(b1-4)GlcNAc
# Summary of the method: as §1
# [35] = molecular target: Fuc(a1-2)[GalNAc(a1-3)]Gal(b1-4)GlcNAc(b1-2)Man(a1-3)[Fuc(a1-2)[GalNAc(a1-3)]Gal(b1-4)GlcNAc(b1-2)Man(a1-6)]Man(b1-4)GlcNAc(b1-4)[Fuc(a1-6)]GlcNAc
# Summary of the method: as §1
# [36] = molecular target: Fuc(a1-2)[GalNAc(a1-3)]Gal(b1-4)GlcNAc(b1-3)Gal(b1-4)GlcNAc
# Summary of the method: as §1
# [37] = molecular target: Fuc(a1-2)[GalNAc(a1-3)]Gal(b1-4)GlcNAc(b1-3)Gal(b1-4)GlcNAc(b1-3)Gal(b1-4)GlcNAc
# Summary of the method: as §1
# [38] = molecular target: Fuc(a1-2)[GalNAc(a1-3)]Gal(b1-4)GlcNAc(b1-3)GalNAc
# Summary of the method: as §1
# [39] = molecular target: Fuc(a1-2)[GalNAc(a1-3)]Gal(b1-4)GlcNAc(b1-3)[Fuc(a1-2)[GalNAc(a1-3)]Gal(b1-4)GlcNAc(b1-6)]GalNAc
# Summary of the method: as §1
# [40] = molecular target: Fuc(a1-2)[GalNAc(a1-3)]Gal(b1-4)GlcNAc(b1-6)GalNAc
# Summary of the method: as §1
# [41] = molecular target: Fuc(a1-2)[GalNAc(a1-3)]Gal(b1-4)[Fuc(a1-3)]GlcNAc
# Summary of the method: as §1
# [42] = molecular target: Fuc(a1-2)[GalNAc(a1-3)]Gal(b1-4)[Fuc(a1-3)]GlcNAc(b1-3)GalNAc
# Summary of the method: as §1
binder,measurement,setting,value
B1,glycan array binding signal (z-score),[1],-0.278
same,glycan array binding signal (z-score),[2],-0.152
same,glycan array binding signal (z-score),Fuc(a1-2)Gal6S(b1-4)Glc,-0.268
same,glycan array binding signal (z-score),[3],-0.226
same,glycan array binding signal (z-score),Fuc(a1-2)GlcNAc,-0.337
same,glycan array binding signal (z-score),Fuc(a1-2)[Gal(a1-3)]Gal,-0.258
same,glycan array binding signal (z-score),[4],-0.142
same,glycan array binding signal (z-score),[5],-0.088
same,glycan array binding signal (z-score),[6],-0.189
same,glycan array binding signal (z-score),[7],-0.267
same,glycan array binding signal (z-score),[8],-0.249
same,glycan array binding signal (z-score),[9],0.344
same,glycan array binding signal (z-score),[10],-0.265
same,glycan array binding signal (z-score),[11],-0.273
same,glycan array binding signal (z-score),[12],-0.273
same,glycan array binding signal (z-score),[13],-0.264
same,glycan array binding signal (z-score),[14],-0.225
same,glycan array binding signal (z-score),[15],-0.211
same,glycan array binding signal (z-score),[16],0.624
same,glycan array binding signal (z-score),[17],-0.332
same,glycan array binding signal (z-score),[18],-0.217
same,glycan array binding signal (z-score),[19],-0.262
same,glycan array binding signal (z-score),[20],-0.235
same,glycan array binding signal (z-score),[21],0.282
same,glycan array binding signal (z-score),[22],-0.293
same,glycan array binding signal (z-score),[23],-0.277
same,glycan array binding signal (z-score),[24],-0.267
same,glycan array binding signal (z-score),[25],-0.248
same,glycan array binding signal (z-score),[26],-0.279
same,glycan array binding signal (z-score),[27],-0.249
same,glycan array binding signal (z-score),[28],-0.235
same,glycan array binding signal (z-score),[29],0.29
same,glycan array binding signal (z-score),[30],-0.279
same,glycan array binding signal (z-score),[31],-0.276
same,glycan array binding signal (z-score),[32],-0.262
same,glycan array binding signal (z-score),[33],-0.29
same,glycan array binding signal (z-score),[34],-0.241
same,glycan array binding signal (z-score),[35],-0.234
same,glycan array binding signal (z-score),[36],-0.283
same,glycan array binding signal (z-score),[37],-0.174
same,glycan array binding signal (z-score),[38],0.427
same,glycan array binding signal (z-score),[39],-0.267
same,glycan array binding signal (z-score),[40],-0.28
same,glycan array binding signal (z-score),[41],-0.211
same,glycan array binding signal (z-score),[42],-0.197
